Assay results reported in the antibiotic and cytotoxicity screens of Wong et al. (2023).
The list shows a part of the results.

The molecules below were run on S. aureus RN4220 (assay: growth inhibition call (relative growth <= 0.2)). Details: 50 µM.

Growth inhibition call, inactive:
Cc1noc(C)c1NC(=O)N(C)C[C@@H]1Oc2cc(C#CCN(C)C)ccc2S(=O)(=O)N([C@@H](C)CO)C[C@@H]1C
O=C(NCC[C@H]1CC[C@@H](NS(=O)(=O)c2cccc(F)c2)[C@H](CO)O1)C1CC1
C[C@H](CO)N1C[C@H](C)[C@@H](CN(C)S(=O)(=O)c2cn(C)cn2)Oc2ccc(NC(=O)CCN3CCOCC3)cc2CC1=O
COc1ccc(NC(=O)N(C)C[C@H]2Oc3ccc(NC(=O)Nc4cccc5ccccc45)cc3CC(=O)N([C@H](C)CO)C[C@@H]2C)cc1
C[C@H]1CN([C@@H](C)CO)C(=O)c2cc(NC(=O)Nc3cccc4ccccc34)ccc2O[C@H]1CN(C)C(=O)NC1CCCCC1
C[C@H]1CN([C@@H](C)CO)C(=O)Cc2cc(NS(=O)(=O)c3ccc(F)cc3)ccc2O[C@@H]1CN(C)S(=O)(=O)c1cn(C)cn1
C[C@@H]1CCCCO[C@@H](CN(C)Cc2ccncc2)[C@H](C)CN([C@H](C)CO)C(=O)c2cc(NC(=O)Cc3ccccc3)ccc2O1
CS(=O)(=O)Nc1ccc2c(c1)[C@@H]1C[C@H](CC(=O)NCC3CC3)O[C@@H](CO)[C@@H]1O2
O=C(C[C@@H]1CC[C@H](NC(=O)Cc2ccccn2)[C@H](CO)O1)NCCc1ccncc1
COCCOC(=O)C1=C(C)NC(C)=C(C(=O)OC(C)C)C1c1cccc([N+](=O)[O-])c1 (stereo not given)
Cc1noc(C)c1NC(=O)N(C)C[C@H]1OCCCC[C@@H](C)Oc2ccc(NC(=O)Nc3ccc(F)cc3)cc2C(=O)N([C@H](C)CO)C[C@@H]1C
C[C@@H]1CCCCO[C@H](CN(C)Cc2ccncc2)[C@@H](C)CN([C@H](C)CO)C(=O)c2cc(NC(=O)c3ccccc3)ccc2O1
CC(C)C(=O)Nc1cccc(Cl)c1
COC[C@H]1CN(C(=O)c2ccccn2)N1
C[C@@H]1CN([C@@H](C)CO)C(=O)c2cc(NS(=O)(=O)c3ccc(Cl)cc3)ccc2O[C@@H](C)CCCCO[C@H]1CN(C)CC1CC1
C[C@H]1CN([C@@H](C)CO)C(=O)c2cc(NC(=O)Cn3cnnn3)ccc2O[C@H]1CN(C)S(=O)(=O)c1cn(C)cn1
CS(=O)(=O)N1C[C@H]2C[C@@H](F)[C@H](O)[C@@H]2C1
C[C@@H]1CCCCO[C@H](CN(C)C(=O)Nc2ccccc2)[C@H](C)CN([C@@H](C)CO)C(=O)c2cc(NC(=O)Nc3ccc(F)cc3)ccc2O1
O=C(O[C@H](Cc1ccc(O)c(O)c1)C(=O)O)[C@H]1[C@H](C(=O)O[C@@H](Cc2ccc(O)c(O)c2)C(=O)O)[C@H](c2ccc(O)c(O)c2)[C@@H]1c1ccc(O)c(O)c1
COc1ccc(NC(=O)N(C)C[C@H]2Oc3ccc(NC(=O)CCCCCC(=O)Nc4ccccc4N)cc3CC(=O)N([C@@H](C)CO)C[C@@H]2C)cc1
C[C@@H]1CN([C@H](C)CO)C(=O)c2cccc(NC(=O)Nc3cccc4ccccc34)c2O[C@@H]1CN(C)Cc1ccncc1
C[C@H](CO)N1C[C@H](C)[C@H](CN(C)C(=O)Nc2cccc3ccccc23)Oc2ncc(-c3ccc(F)cc3)cc2C1=O
CO[C@H]1CN(C)C(=O)c2cc(NS(=O)(=O)c3cn(C)cn3)ccc2OC[C@@H](C)N(CCC(F)(F)F)C[C@@H]1C
C[C@@H]1CN([C@@H](C)CO)C(=O)Cc2cc(NS(=O)(=O)c3ccc(F)cc3)ccc2O[C@@H]1CN(C)Cc1ccc(Cl)c(Cl)c1
C[C@@H]1CCCCO[C@@H](CN(C)Cc2ccc(C(=O)O)cc2)[C@@H](C)CN([C@@H](C)CO)C(=O)c2cc(NC(=O)Nc3ccc4c(c3)OCO4)ccc2O1
C[C@H]1CN([C@@H](C)CO)C(=O)c2cc(/C=C/c3ccccc3)cnc2O[C@H]1CN(C)C(=O)Nc1ccc(C(F)(F)F)cc1
Cc1cccc(S(=O)(=O)N2C[C@@H](O)COC[C@@H]3O[C@@H](CC(=O)NCc4ccncn4)CC[C@H]32)c1
NC(=O)C[n+]1cccc2ccccc21
Cc1noc(C)c1NC(=O)Nc1ccc2c(c1)C(=O)N([C@H](C)CO)C[C@H](C)[C@H](CN(C)C(=O)Nc1ccccc1)OCCCC[C@H](C)O2
COc1cccc(S(=O)(=O)N(C)C[C@@H]2Oc3cc(C#CCN(C)C)ccc3S(=O)(=O)N([C@H](C)CO)C[C@@H]2C)c1
